Experimental data reported in PMC9911399, “Two distinct binding modes provide the RNA-binding protein RbFox with extraordinary sequence specificity”.
Changes are numbered by the printed parent chain; changes in the protein carry UniProt numbers. This is one part of the list.

T1: RBFOX1 RRM RbFoxmut (Fox-RRM*) (Homo sapiens, UniProt Q9NWB1 109-208, R118D;E147R;N151S;E152T)
T1 sequence: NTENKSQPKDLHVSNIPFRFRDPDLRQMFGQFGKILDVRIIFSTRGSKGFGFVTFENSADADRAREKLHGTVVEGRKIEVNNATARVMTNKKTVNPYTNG

B1: ACCCUGA (DNA:RNA)
RNA: GGGAGACCGGAAUUCAGAUUGUCCACCCUGAUUAAAUCCCGUCGUAGCCACCA
DNA 1: CAATCTGAATTCCGGTCTCCC
DNA 2: TGGTGGCTACGACGGGATT
B2: CCCGGUC (DNA:RNA)
RNA: B1 RNA with A25C, C28G, U29G, G30U, A31C
DNA 1: CAATCTGAATTCCGGTCTCCC
DNA 2: TGGTGGCTACGACGGGATT
B3: GGCUCAG (DNA:RNA)
RNA: B1 RNA with A25G, C26G, C28U, U29C, G30A, A31G
DNA 1: CAATCTGAATTCCGGTCTCCC
DNA 2: TGGTGGCTACGACGGGATT
B4: CCUAACC (DNA:RNA)
RNA: B1 RNA with A25C, C27U, C28A, U29A, G30C, A31C
DNA 1: CAATCTGAATTCCGGTCTCCC
DNA 2: TGGTGGCTACGACGGGATT
B5: CCCUACC (DNA:RNA)
RNA: B1 RNA with A25C, C28U, U29A, G30C, A31C
DNA 1: CAATCTGAATTCCGGTCTCCC
DNA 2: TGGTGGCTACGACGGGATT
B6: GAAUAGU (DNA:RNA)
RNA: B1 RNA with A25G, C26A, C27A, C28U, U29A, A31U
DNA 1: CAATCTGAATTCCGGTCTCCC
DNA 2: TGGTGGCTACGACGGGATT
B7: UUAUUUC (DNA:RNA)
RNA: B1 RNA with A25U, C26U, C27A, C28U, G30U, A31C
DNA 1: CAATCTGAATTCCGGTCTCCC
DNA 2: TGGTGGCTACGACGGGATT
B8: AGCCACU (DNA:RNA)
RNA: B1 RNA with C26G, U29A, G30C, A31U
DNA 1: CAATCTGAATTCCGGTCTCCC
DNA 2: TGGTGGCTACGACGGGATT
B9: AAACUCA (DNA:RNA)
RNA: B1 RNA with C26A, C27A, G30C
DNA 1: CAATCTGAATTCCGGTCTCCC
DNA 2: TGGTGGCTACGACGGGATT
B10: CUUUCCA (DNA:RNA)
RNA: B1 RNA with A25C, C26U, C27U, C28U, U29C, G30C
DNA 1: CAATCTGAATTCCGGTCTCCC
DNA 2: TGGTGGCTACGACGGGATT
B11: CCAUAAC (DNA:RNA)
RNA: B1 RNA with A25C, C27A, C28U, U29A, G30A, A31C
DNA 1: CAATCTGAATTCCGGTCTCCC
DNA 2: TGGTGGCTACGACGGGATT
B12: AAAGCCG (DNA:RNA)
RNA: B1 RNA with C26A, C27A, C28G, U29C, G30C, A31G
DNA 1: CAATCTGAATTCCGGTCTCCC
DNA 2: TGGTGGCTACGACGGGATT
B13: GACUCAC (DNA:RNA)
RNA: B1 RNA with A25G, C26A, C28U, U29C, G30A, A31C
DNA 1: CAATCTGAATTCCGGTCTCCC
DNA 2: TGGTGGCTACGACGGGATT
B14: AUGCAAU (DNA:RNA)
RNA: B1 RNA with C26U, C27G, U29A, G30A, A31U
DNA 1: CAATCTGAATTCCGGTCTCCC
DNA 2: TGGTGGCTACGACGGGATT
B15: CCUGAGU (DNA:RNA)
RNA: B1 RNA with A25C, C27U, C28G, U29A, A31U
DNA 1: CAATCTGAATTCCGGTCTCCC
DNA 2: TGGTGGCTACGACGGGATT
B16: AAACCUG (DNA:RNA)
RNA: B1 RNA with C26A, C27A, U29C, G30U, A31G
DNA 1: CAATCTGAATTCCGGTCTCCC
DNA 2: TGGTGGCTACGACGGGATT
B17: CAUCUCC (DNA:RNA)
RNA: B1 RNA with A25C, C26A, C27U, G30C, A31C
DNA 1: CAATCTGAATTCCGGTCTCCC
DNA 2: TGGTGGCTACGACGGGATT
B18: UACGCAC (DNA:RNA)
RNA: B1 RNA with A25U, C26A, C28G, U29C, G30A, A31C
DNA 1: CAATCTGAATTCCGGTCTCCC
DNA 2: TGGTGGCTACGACGGGATT
B19: CGGAUCG (DNA:RNA)
RNA: B1 RNA with A25C, C26G, C27G, C28A, G30C, A31G
DNA 1: CAATCTGAATTCCGGTCTCCC
DNA 2: TGGTGGCTACGACGGGATT
B20: GUAUUUC (DNA:RNA)
RNA: B1 RNA with A25G, C26U, C27A, C28U, G30U, A31C
DNA 1: CAATCTGAATTCCGGTCTCCC
DNA 2: TGGTGGCTACGACGGGATT
B21: AUGACGC (DNA:RNA)
RNA: B1 RNA with C26U, C27G, C28A, U29C, A31C
DNA 1: CAATCTGAATTCCGGTCTCCC
DNA 2: TGGTGGCTACGACGGGATT
B22: UGACAUG (DNA:RNA)
RNA: B1 RNA with A25U, C26G, C27A, U29A, G30U, A31G
DNA 1: CAATCTGAATTCCGGTCTCCC
DNA 2: TGGTGGCTACGACGGGATT
B23: AGAGAGC (DNA:RNA)
RNA: B1 RNA with C26G, C27A, C28G, U29A, A31C
DNA 1: CAATCTGAATTCCGGTCTCCC
DNA 2: TGGTGGCTACGACGGGATT
B24: GAGCAGC (DNA:RNA)
RNA: B1 RNA with A25G, C26A, C27G, U29A, A31C
DNA 1: CAATCTGAATTCCGGTCTCCC
DNA 2: TGGTGGCTACGACGGGATT
B25: GGACACG (DNA:RNA)
RNA: B1 RNA with A25G, C26G, C27A, U29A, G30C, A31G
DNA 1: CAATCTGAATTCCGGTCTCCC
DNA 2: TGGTGGCTACGACGGGATT
B26: ACUUGCU (DNA:RNA)
RNA: B1 RNA with C27U, C28U, U29G, G30C, A31U
DNA 1: CAATCTGAATTCCGGTCTCCC
DNA 2: TGGTGGCTACGACGGGATT
B27: UCCCAAC (DNA:RNA)
RNA: B1 RNA with A25U, U29A, G30A, A31C
DNA 1: CAATCTGAATTCCGGTCTCCC
DNA 2: TGGTGGCTACGACGGGATT
B28: AGAAACG (DNA:RNA)
RNA: B1 RNA with C26G, C27A, C28A, U29A, G30C, A31G
DNA 1: CAATCTGAATTCCGGTCTCCC
DNA 2: TGGTGGCTACGACGGGATT
B29: CGACUUC (DNA:RNA)
RNA: B1 RNA with A25C, C26G, C27A, G30U, A31C
DNA 1: CAATCTGAATTCCGGTCTCCC
DNA 2: TGGTGGCTACGACGGGATT
B30: GAACUAA (DNA:RNA)
RNA: B1 RNA with A25G, C26A, C27A, G30A
DNA 1: CAATCTGAATTCCGGTCTCCC
DNA 2: TGGTGGCTACGACGGGATT
B31: AUCCAUC (DNA:RNA)
RNA: B1 RNA with C26U, U29A, G30U, A31C
DNA 1: CAATCTGAATTCCGGTCTCCC
DNA 2: TGGTGGCTACGACGGGATT

Molecular target: T1, RBFOX1 RRM RbFoxmut (Fox-RRM*)
Test: EMSA; HiTS-Eq, 1 nM pool, 10 min; buffer printed only for the single-RNA assays: 10 mM Tris pH 7.5, 150 mM NaCl, 3.4 mM EDTA, 0.001% NP-40, 30 C
Conditions: tags: His6 N-terminal (pET28a); label: 5' 32P
Summary of the method: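 Purified wild-type or mutant RbFox RRM at increasing concentrations was equilibrated with 1 nM of 5′-radiolabelled RNA carrying 7 randomized nucleotides for 10 min in 50 µL. Unbound RNA was separated by 8% native PAGE and sequenced. Relative association constants came from read-count changes of each RNA species compared with the control reaction, normalised to the cognate motif.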

For B1, which binding signal is on record?
Its binding signal is 0.0869 KA relative to UGCAUGU.

How did the binding signal turn out when B2 was run?
The binding signal was 0.0933 KA relative to UGCAUGU.

For B3, which binding signal is on record?
Its binding signal is 0.113 KA relative to UGCAUGU.

Which binding signal does the source give for B4 here?
The binding signal was 0.0718 KA relative to UGCAUGU.

B5 was tested. Which binding signal did it give?
Its binding signal is 0.0909 KA relative to UGCAUGU.

B6 was tested. Which binding signal did it give?
The binding signal was 0.147 KA relative to UGCAUGU.

For B7, which binding signal is on record?
The binding signal was 0.0892 KA relative to UGCAUGU.

For B8, which binding signal is on record?
The binding signal was 0.0586 KA relative to UGCAUGU.

With B9 as the binder, how does the binding signal read?
Its binding signal is 0.0906 KA relative to UGCAUGU.

With B10 as the binder, how does the binding signal read?
The binding signal was 0.0863 KA relative to UGCAUGU.

With B11 as the binder, how does the binding signal read?
Its binding signal is 0.119 KA relative to UGCAUGU.

B12 was tested. Which binding signal did it give?
The binding signal was 0.0927 KA relative to UGCAUGU.

How did the binding signal turn out when B13 was run?
Its binding signal is 0.0665 KA relative to UGCAUGU.

Which binding signal does the source give for B14 here?
Its binding signal is 0.0627 KA relative to UGCAUGU.

For B15, which binding signal is on record?
The binding signal was 0.0868 KA relative to UGCAUGU.

With B16 as the binder, how does the binding signal read?
The binding signal was 0.0679 KA relative to UGCAUGU.

How did the binding signal turn out when B17 was run?
The binding signal was 0.0618 KA relative to UGCAUGU.

With B18 as the binder, how does the binding signal read?
The binding signal was 0.0773 KA relative to UGCAUGU.

How did the binding signal turn out when B19 was run?
The binding signal was 0.331 KA relative to UGCAUGU.

Which binding signal does the source give for B20 here?
Its binding signal is 0.0956 KA relative to UGCAUGU.

How did the binding signal turn out when B21 was run?
Its binding signal is 0.0829 KA relative to UGCAUGU.

How did the binding signal turn out when B22 was run?
Its binding signal is 0.283 KA relative to UGCAUGU.

Which binding signal does the source give for B23 here?
The binding signal was 0.0906 KA relative to UGCAUGU.

B24 was tested. Which binding signal did it give?
The binding signal was 0.0998 KA relative to UGCAUGU.

B25 was tested. Which binding signal did it give?
The binding signal was 0.0595 KA relative to UGCAUGU.

B26 was tested. Which binding signal did it give?
The binding signal was 0.113 KA relative to UGCAUGU.

How did the binding signal turn out when B27 was run?
Its binding signal is 0.0514 KA relative to UGCAUGU.

B28 was tested. Which binding signal did it give?
The binding signal was 0.11 KA relative to UGCAUGU.

How did the binding signal turn out when B29 was run?
The binding signal was 0.0536 KA relative to UGCAUGU.

How did the binding signal turn out when B30 was run?
The binding signal was 0.0987 KA relative to UGCAUGU.

For B31, which binding signal is on record?
Its binding signal is 0.1 KA relative to UGCAUGU.
